# Measured values: PMC6220479 (Journal for Immunotherapy of Cancer, 2018)
# T1: immobilized PD-L2 (UniProt Q9BQ51 20-220)
# T1 construct: PD-L2; construct not described
# T1 sequence (looked up): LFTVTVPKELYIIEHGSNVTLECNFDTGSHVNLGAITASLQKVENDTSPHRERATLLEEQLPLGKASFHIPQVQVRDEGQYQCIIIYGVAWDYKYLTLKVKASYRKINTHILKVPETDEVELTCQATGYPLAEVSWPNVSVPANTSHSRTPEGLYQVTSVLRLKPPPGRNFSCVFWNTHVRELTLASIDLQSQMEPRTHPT
# What was measured:
# Conditions in all cases: both partners purified
# immobilized CD40 = immobilized CD40 (UniProt P25942 21-277, construct not described; extracellular domain taken from UniProt features, immobilized); experiment: not stated; CD47 or CD40 immobilized
# immobilized CD40, sequence (P25942 21-277): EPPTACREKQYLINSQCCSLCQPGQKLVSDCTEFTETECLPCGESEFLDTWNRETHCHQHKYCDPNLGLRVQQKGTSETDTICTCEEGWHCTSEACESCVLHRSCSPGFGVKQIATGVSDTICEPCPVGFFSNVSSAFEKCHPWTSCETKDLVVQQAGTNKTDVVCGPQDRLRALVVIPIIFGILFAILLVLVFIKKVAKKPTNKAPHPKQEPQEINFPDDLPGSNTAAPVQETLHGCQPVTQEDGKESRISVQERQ
# CD47 = CD47 (UniProt Q08722, construct not described; N-terminal extracellular IgV domain taken from UniProt features; native N-terminal pyroglutamate and N-glycans possible); experiment: not stated; CD47 or CD40 immobilized
# CD47, sequence (Q08722 19-323): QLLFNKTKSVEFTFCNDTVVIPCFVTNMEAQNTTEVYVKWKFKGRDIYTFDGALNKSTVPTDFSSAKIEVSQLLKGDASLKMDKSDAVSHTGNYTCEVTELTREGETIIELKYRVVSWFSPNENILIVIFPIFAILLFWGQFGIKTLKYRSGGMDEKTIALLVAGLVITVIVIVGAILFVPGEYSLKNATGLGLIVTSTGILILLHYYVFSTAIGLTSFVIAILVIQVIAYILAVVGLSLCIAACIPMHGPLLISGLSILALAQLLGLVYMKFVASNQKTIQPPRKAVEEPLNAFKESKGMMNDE
# immobilized OX40 = immobilized OX40 (UniProt P43489 29-277, construct not described; extracellular domain taken from UniProt features, immobilized); experiment: not stated; PD-L1, PD-L2 or OX40 immobilized
# immobilized OX40, sequence (P43489 29-277): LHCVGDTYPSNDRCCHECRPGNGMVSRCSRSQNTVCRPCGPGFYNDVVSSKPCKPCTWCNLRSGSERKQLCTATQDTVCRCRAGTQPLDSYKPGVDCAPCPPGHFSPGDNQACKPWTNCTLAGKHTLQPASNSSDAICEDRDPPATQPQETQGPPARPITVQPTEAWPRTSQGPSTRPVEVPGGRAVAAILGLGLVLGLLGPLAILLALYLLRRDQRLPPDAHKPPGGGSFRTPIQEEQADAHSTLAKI
# PD-L1 = PD-L1 (UniProt Q9NZQ7, construct not described; extracellular domain taken from UniProt features); experiment: not stated; PD-L1, PD-L2 or OX40 immobilized
# PD-L1, sequence (Q9NZQ7 19-290): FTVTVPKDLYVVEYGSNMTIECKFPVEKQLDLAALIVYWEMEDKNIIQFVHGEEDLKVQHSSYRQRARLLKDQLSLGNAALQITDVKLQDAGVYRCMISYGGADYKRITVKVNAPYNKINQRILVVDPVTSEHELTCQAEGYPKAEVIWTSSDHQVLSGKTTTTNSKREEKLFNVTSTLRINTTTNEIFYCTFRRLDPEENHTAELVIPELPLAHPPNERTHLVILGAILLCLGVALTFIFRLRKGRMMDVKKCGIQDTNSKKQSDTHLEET
# immobilized PD-L2 = target: T1, immobilized PD-L2; experiment: not stated; PD-L1, PD-L2 or OX40 immobilized
Kd (immobilized CD40) [nM],Kd (CD47) [nM],Kd (immobilized OX40) [nM],Kd (PD-L1) [nM],Kd (immobilized PD-L2) [nM],Binder
0.756,3.59,,,,"SIRPα-Fc-CD40L, Agonist Redirected Checkpoint (ARC) fusion protein (Fc fusion, human, SIRPα extracellular domain; CD40L extracellular domain; human and mouse versions were produced; the abstract calls the reported molecule a human fusion protein; not shown: Fc, internal (between the two extracellular domains), kept) [about 350 residues not given here]HRRLDKIEDERNLHEDFVFMKTIQRCNTGERSLSLLNCEEIKSQFEGFVKDIMLNKEETKKENSFEMQKGDQNPQIAAHVISEASSKTTSVLQWAEKGYYTMSNNLVTLENGKQLTVKRQGLYYIYAQVTFCSNREASSQAPFIASLCLKSPGRFERILLRAANTHSSAKPCGQQSIHLGGVFELQPGASVFVNVTDPSQVSHGTGFTSFGLLKL"
,,0.246,2.08,1.76,"PD1-Fc-OX40L, Agonist Redirected Checkpoint (ARC) fusion protein (Fc fusion, PD-1 extracellular domain (type I ECD); OX40L extracellular domain (type II ECD); abstract P657; not shown: Fc, internal (between the two extracellular domains), kept) [about 150 residues not given here]QVSHRYPRIQSIKVQFTEYKKEKGFILTSQKEDEIMKVQNNSVIINCDGFYLISLKGYFSQEVNISLHYQKDEEPLFQLKKVRSVNSLMVASLTYKDKVYLNVTTDNTSLDDFHVNGGELILIHQNPGEFCVL"
